The list shows a part of the results, in another mix than the full data. The list includes weakly bound sequences.

Holding throughout (experiment): protein-binding microarray (PBM)
Common to all, as to settings: PBM: ~300 nM protein, 6 mM HEPES pH 7.8, 80 mM KCl, 0.5 mM EDTA, 0.5 mM EGTA, 6% glycerol, 35 ng/ul poly-dIdC, 1% milk, 1 h, room temperature; Ap Aiptasia and Nv Nematostella (sea anemones) / Co Capsaspora / Aq Amphimedon (sponge) / Dm Drosophila / Hu human; RHD is the Rel homology domain; high values mean tight binding; most listed sequences are background and not binding sites; double strand, one strand shown

Assay [1] deals with T1, GST-Ap-NF-kB RHD (UniProt A0A913YAJ5).
T1 sequence: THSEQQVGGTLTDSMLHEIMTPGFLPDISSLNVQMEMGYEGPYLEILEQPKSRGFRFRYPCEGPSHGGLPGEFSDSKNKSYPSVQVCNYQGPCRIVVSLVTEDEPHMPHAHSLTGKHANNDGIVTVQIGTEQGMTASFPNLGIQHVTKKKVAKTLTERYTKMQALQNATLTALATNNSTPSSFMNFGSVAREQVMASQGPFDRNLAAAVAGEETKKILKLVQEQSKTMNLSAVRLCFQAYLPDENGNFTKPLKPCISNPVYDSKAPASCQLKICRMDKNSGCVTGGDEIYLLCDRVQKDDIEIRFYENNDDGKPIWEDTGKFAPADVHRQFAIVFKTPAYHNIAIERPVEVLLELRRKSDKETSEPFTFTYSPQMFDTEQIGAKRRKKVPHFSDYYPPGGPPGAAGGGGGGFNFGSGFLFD

Assay [2] has as its target T2, GST-Nv-NF-kB (Cys allele) (UniProt E5G601).
T2 sequence: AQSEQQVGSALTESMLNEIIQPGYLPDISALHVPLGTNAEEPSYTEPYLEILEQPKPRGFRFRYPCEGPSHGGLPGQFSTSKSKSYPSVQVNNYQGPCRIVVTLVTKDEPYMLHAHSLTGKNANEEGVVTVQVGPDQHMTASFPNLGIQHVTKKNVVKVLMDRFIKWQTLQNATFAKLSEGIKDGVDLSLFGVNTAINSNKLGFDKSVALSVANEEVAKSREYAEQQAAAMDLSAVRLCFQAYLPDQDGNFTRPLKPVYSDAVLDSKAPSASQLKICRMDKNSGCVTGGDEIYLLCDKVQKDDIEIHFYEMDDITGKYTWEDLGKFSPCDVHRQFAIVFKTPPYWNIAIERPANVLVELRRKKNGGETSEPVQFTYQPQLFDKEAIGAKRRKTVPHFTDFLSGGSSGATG

Assay [3] deals with T3, GST-Co-NF-kB (UniProt F1ARL5).
T3 sequence: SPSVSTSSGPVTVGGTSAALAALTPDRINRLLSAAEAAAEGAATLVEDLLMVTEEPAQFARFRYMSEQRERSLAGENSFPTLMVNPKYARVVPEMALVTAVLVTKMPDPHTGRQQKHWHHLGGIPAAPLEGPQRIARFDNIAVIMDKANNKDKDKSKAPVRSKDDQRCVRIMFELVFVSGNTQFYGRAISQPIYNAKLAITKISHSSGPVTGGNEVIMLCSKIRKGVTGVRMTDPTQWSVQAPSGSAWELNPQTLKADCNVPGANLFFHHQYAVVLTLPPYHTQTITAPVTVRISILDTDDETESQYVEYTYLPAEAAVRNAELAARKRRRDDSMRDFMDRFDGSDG

Assay [4] has as its target T4, GST-Dm-Relish (UniProt Q94527).
T4 sequence: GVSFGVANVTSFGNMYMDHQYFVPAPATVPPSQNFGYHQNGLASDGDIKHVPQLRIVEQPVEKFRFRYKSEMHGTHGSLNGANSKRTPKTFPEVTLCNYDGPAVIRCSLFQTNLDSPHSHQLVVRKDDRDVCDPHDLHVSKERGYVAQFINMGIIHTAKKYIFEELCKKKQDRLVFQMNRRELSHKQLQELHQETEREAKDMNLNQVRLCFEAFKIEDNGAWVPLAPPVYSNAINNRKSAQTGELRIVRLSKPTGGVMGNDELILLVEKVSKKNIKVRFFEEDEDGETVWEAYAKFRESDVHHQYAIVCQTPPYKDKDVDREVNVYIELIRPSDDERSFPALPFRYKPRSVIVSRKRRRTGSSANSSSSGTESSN

Assay [5] deals with T5, GST-Aq-NF-kB (UniProt A9Y5G7).
T5 sequence: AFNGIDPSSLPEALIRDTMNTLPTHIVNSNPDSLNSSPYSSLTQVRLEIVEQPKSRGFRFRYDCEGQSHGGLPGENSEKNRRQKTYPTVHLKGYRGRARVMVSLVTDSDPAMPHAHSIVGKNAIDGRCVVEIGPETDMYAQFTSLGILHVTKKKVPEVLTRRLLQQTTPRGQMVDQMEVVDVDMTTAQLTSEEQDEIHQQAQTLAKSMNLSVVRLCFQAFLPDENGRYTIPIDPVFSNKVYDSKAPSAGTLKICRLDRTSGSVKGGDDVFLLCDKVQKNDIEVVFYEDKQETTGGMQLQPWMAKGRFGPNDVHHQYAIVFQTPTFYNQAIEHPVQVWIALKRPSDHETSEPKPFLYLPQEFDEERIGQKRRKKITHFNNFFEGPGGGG

Consider “CCGATTAACATCAAGGCATGCTCTGATGTTAATCGGGTCTTGATTCGCTTGACGCTGCTG”, for which the binding signal was -0.359 z-score in assay [1]; 0.395 z-score in assay [2]; -1.69 z-score in assay [3]; -1.06 z-score in assay [4]; -0.437 z-score in assay [5].
Taken in the same sequence, the figures for “CCGATTAACATCACTTACATTGGTGATGTTAATCGGGTCTTGATTCGCTTGACGCTGCTG” were 0.166 z-score, -0.0573 z-score, 0.148 z-score, 0.711 z-score and -0.262 z-score.
The corresponding values for “CCGATTAACATCAGAAGTCATACTGATGTTAATCGGGTCTTGATTCGCTTGACGCTGCTG” are -0.335 z-score, -1.14 z-score, -0.439 z-score, -1.08 z-score and -0.664 z-score.
The corresponding values for “CCGATTAACATCAATCAGACGCATGATGTTAATCGGGTCTTGATTCGCTTGACGCTGCTG” are 0.178 z-score, -1.19 z-score, -0.372 z-score, -0.808 z-score and -0.566 z-score.
Take “CCGATTAACATCAACATAGAGTATGATGTTAATCGGGTCTTGATTCGCTTGACGCTGCTG”: the binding signal in assay [1] was -0.417 z-score; in assay [2], -0.365 z-score; in assay [3], 0.204 z-score; in assay [4], -0.751 z-score; in assay [5] it was -0.601 z-score.
Taken in the same sequence, the figures for “CCGATTAACATCACGCGAGCAAGTGATGTTAATCGGGTCTTGATTCGCTTGACGCTGCTG” were -0.253 z-score, -0.333 z-score, -0.886 z-score, 0.25 z-score and -0.217 z-score.
Taken in the same sequence, the figures for “CCGATTAACATCACACTCAGTCCTGATGTTAATCGGGTCTTGATTCGCTTGACGCTGCTG” were -0.0952 z-score, 0.0587 z-score, 0.353 z-score, 0.665 z-score and -0.0207 z-score.
Taken in the same sequence, the figures for “CCGATTAACATCAAGCGCTTCAATGATGTTAATCGGGTCTTGATTCGCTTGACGCTGCTG” were -1.07 z-score, 0.0188 z-score, -2.03 z-score, -0.696 z-score and -0.577 z-score.
Consider “CCGATTAACATCAGCCGCCTACCTGATGTTAATCGGGTCTTGATTCGCTTGACGCTGCTG”, for which the binding signal is 0.47 z-score in assay [1]; -0.347 z-score in assay [2]; -0.662 z-score in assay [3]; -0.616 z-score in assay [4]; -0.39 z-score in assay [5].
The corresponding values for “CCGATTAACATCAGTTTAGTTCGTGATGTTAATCGGGTCTTGATTCGCTTGACGCTGCTG” are -0.712 z-score, 0.0638 z-score, 0.612 z-score, -0.0625 z-score and -0.511 z-score.
Taken in the same sequence, the figures for “CCGATTAACATCAAGCGTACATCTGATGTTAATCGGGTCTTGATTCGCTTGACGCTGCTG” were -0.685 z-score, -0.125 z-score, 0.123 z-score, -0.0201 z-score and -0.241 z-score.
Consider “CCGATTAACATCAGCATAATATATGATGTTAATCGGGTCTTGATTCGCTTGACGCTGCTG”, for which the binding signal in assay [1] is 0.0409 z-score; in assay [2], -0.0481 z-score; in assay [3] it was 0.575 z-score; in assay [4], 0.139 z-score; in assay [5] it was 0.0876 z-score.
The corresponding values for “CCGATTAACATCACGTACTACAATGATGTTAATCGGGTCTTGATTCGCTTGACGCTGCTG” are -0.126 z-score, -0.21 z-score, 0.507 z-score, 0.0356 z-score and -0.177 z-score.
Taken in the same sequence, the figures for “CCGATTAACATCAAGCGAATGTATGATGTTAATCGGGTCTTGATTCGCTTGACGCTGCTG” were -0.283 z-score, -0.261 z-score, -0.153 z-score, -0.434 z-score and -0.207 z-score.

(Values after PMC5700166.)
